# Laboratory results taken from PubChem BioAssay AID1460 (National Center for Advancing Translational Sciences (NCATS), 2008).
# The campaign covered roughly 270,000 compounds. About 5,800 (2.1%) were called active. The shares of active, inactive and inconclusive entries below differ from those in the screen. Calls follow the shape of the dose curve; as a rule, active = well fitted inhibition curve with a large enough effect; inconclusive = small, poorly fitted or top-dose-only effect; inactive = flat fitted curve, though single readings scatter. Potencies beside an inconclusive call are fits to weak or partial responses and may not hold up.
# Molecular target: Microtubule-associated protein tau (Homo sapiens) (UniProt P10636)
# Sequence of UniProt P10636 (P10636 whole entry, looked up): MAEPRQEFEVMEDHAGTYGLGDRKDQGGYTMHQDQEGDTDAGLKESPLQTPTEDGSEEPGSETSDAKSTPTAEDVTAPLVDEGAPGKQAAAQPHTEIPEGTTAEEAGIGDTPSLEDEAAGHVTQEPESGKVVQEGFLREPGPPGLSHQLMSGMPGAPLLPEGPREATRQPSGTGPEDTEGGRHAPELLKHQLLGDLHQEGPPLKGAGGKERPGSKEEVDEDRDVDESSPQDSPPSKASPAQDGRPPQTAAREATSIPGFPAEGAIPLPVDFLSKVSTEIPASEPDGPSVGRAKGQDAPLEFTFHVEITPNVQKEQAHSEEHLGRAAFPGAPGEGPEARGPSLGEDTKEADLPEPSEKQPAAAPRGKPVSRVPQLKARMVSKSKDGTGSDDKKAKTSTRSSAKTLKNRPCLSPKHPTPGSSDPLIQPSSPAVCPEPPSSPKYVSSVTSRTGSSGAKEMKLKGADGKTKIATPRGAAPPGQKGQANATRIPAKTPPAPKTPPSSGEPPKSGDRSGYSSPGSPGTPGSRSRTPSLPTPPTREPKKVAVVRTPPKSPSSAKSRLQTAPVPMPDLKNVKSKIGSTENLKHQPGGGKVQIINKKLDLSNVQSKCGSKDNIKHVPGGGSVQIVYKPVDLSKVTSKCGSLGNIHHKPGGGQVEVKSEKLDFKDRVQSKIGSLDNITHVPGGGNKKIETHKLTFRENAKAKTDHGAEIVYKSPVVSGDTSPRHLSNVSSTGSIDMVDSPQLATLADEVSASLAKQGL
# Experiment: qHTS for Inhibitors of Tau Fibril Formation, Thioflavin T Binding; also: nearly all actives have a fitted effect of over 55% in size
# Settings: recombinant tau K18 P301L (four-repeat tau fragment), heparin-induced fibrillization, ThT fluorescence; series mostly up to 57.4 µM
# Outline: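 Recombinant human tau K18 fragment […] carrying P301L, 15 uM unlabeled plus 0.24 uM Alexa 594-labeled, was fibrillized with 20 uM heparin in 100 mM sodium acetate pH 7 for 6 hr at 37 C; 30 uM ThT fluorescence read after 1 hr.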
# Potency is read from the fitted curve at half-maximal effect; tags tell the direction and shape of the fitted curve.
row,Compound,Potency
1,Cc1[nH]n(-c2ccccc2)c(=O)c1/C=N/Nc1nncc(-c2ccccc2)n1,active: 14.1 µM
2,CCC(=O)Nc1nnc2n1CCS2,inactive
3,CN1CCC(=NNc2ncnc3sc4c(c23)CCCC4)CC1,"inconclusive: 31.6 µM [inhibitor, single point]"
4,COC(=O)c1ccc([C@H]2Nc3ccc(S(=O)(=O)Nc4cccc(C)c4)cc3[C@H]3C=CC[C@H]32)cc1,"inconclusive: 11.2 µM [inhibitor, partial curve]"
5,CC1(OC(=O)C2CCCC2)C(=O)C=C2C=C(c3ccsc3)N(Cc3ccc4c(c3)OCO4)C=C2C1=O (stereo not given),"inconclusive: 6.31 µM [inhibitor, partial curve]"
6,Nc1nc(C2CC2)c(Sc2sc(N)nc2C2CC2)s1,active: 17.8 µM
7,CC(=NCCN1CCN(C(C)=C2C(=O)c3ccccc3C2=O)CC1)C1=C(O)CC(C)(C)CC1=O,"inconclusive: 20 µM [inhibitor, partial curve]"
8,Cc1ccc(C2CC(=O)Oc3cc4c(cc32)OCO4)cc1 (stereo not given),"inconclusive: 35.5 µM [inhibitor, partial curve]"
9,CCN1CCN(C(c2ccc(F)cc2)c2nnnn2Cc2ccc3c(c2)OCO3)CC1 (stereo not given),"inconclusive: 0.0251 µM [activator, full curve, poor fit]"
10,O=C(COc1ccc(Cl)cc1Cl)Nn1c(=S)[nH]c2ncccc2c1=O,"inconclusive: 15.8 µM [inhibitor, partial curve]"
11,Cc1cc(C)c2oc(-c3ccc(C)c(NC(=O)/C=C/c4ccco4)c3)nc2c1,inactive
12,COc1ccc(CNC(=O)c2cc3c(=O)n(C)c4ccccc4c3n2C)c(OC)c1,inactive
13,Cn1c(=O)c2c(nc(NCc3ccc4c(c3)OCO4)n2Cc2ccc(F)cc2)n(C)c1=O,"inconclusive: 39.8 µM [inhibitor, single point]"
14,O=[N+]([O-])c1ccc(/C=N/n2cnc3ccccc32)s1,active: 14.1 µM
15,COC(=O)CCC/C=C1/SCC(NC(=O)c2ccccc2)C1=O (stereo not given),"inconclusive: 20 µM [inhibitor, partial curve]"
16,O=C(OCCCN1CCOCC1)c1ccc(O)c(O)c1,inactive
17,Clc1ccc(CON/C=N/c2ncnc3sccc23)c(Cl)c1,"inconclusive: 14.1 µM [inhibitor, partial curve]"
18,COc1ccc(-c2csc(-c3cccs3)n2)cc1OC,"inconclusive: 25.1 µM [inhibitor, single point]"
19,COC(=O)C(=O)/C=C(\O)c1ccc(C)cc1,active: 22.4 µM
20,CN(C)c1ccc(/C=N/N2C(=S)SC(C)(C)C2N(O)C(=O)Nc2ccc([N+](=O)[O-])cc2)cc1 (stereo not given),active: 17.8 µM
